Measurements as given in doi:10.1101/2021.11.17.468963 (bioRxiv, 2021).

Target: the molecule itself
Test: cryo-EM structure

B1: β-galactosidase from Escherichia coli (enzyme)
chain: not shown
binding result: binds
